# Laboratory results reported in PubChem BioAssay AID1745853 (National Center for Advancing Translational Sciences (NCATS), 2022).
# The other results are listed elsewhere or left out. Shown are side measurements of this screen, not its main read-out; they come without a call.
# How the values were obtained:
# Assay in all cases: Primary Screen for Target Class Profiling of Small Molecule Inhibitors of Methyltransferases
# [1] = target: Glycine N-methyltransferase (Homo sapiens) (UniProt Q14749); details: purified enzyme, MTase-Glo SAH luminescence; measured here: GNMT inhibition; at 40 µM; stronger effect = lower value
# How it was run: (§1)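 Each enzyme was reacted with SAM and its substrate, with compounds tested once at 40 uM; SAH formed was read by MTase-Glo luminescence.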
# [2] = target: Guanidinoacetate N-methyltransferase (Homo sapiens) (UniProt Q14353); details: purified enzyme, MTase-Glo SAH luminescence; measured here: GAMT inhibition; at 40 µM; stronger effect = lower value
# How it was run: as §1
# [3] = target: Histamine N-methyltransferase (Homo sapiens) (UniProt P50135); details: purified enzyme, MTase-Glo SAH luminescence; measured here: HNMT inhibition; at 40 µM; stronger effect = lower value
# How it was run: as §1
# [4] = target: Nicotinamide N-methyltransferase (Homo sapiens) (UniProt P40261); details: purified enzyme, MTase-Glo SAH luminescence; measured here: NNMT inhibition; at 40 µM; stronger effect = lower value
# How it was run: as §1
# [5] = target: Phenylethanolamine N-methyltransferase (Homo sapiens) (UniProt P11086); details: purified enzyme, MTase-Glo SAH luminescence; measured here: PNMT inhibition; at 40 µM; stronger effect = lower value
# How it was run: as §1
# % is scaled to controls: 0 for no effect and ±100 for the full control effect.
Structure (SMILES),"activity change, negative = inhibition [1] [%]","activity change, negative = inhibition [2] [%]","activity change, negative = inhibition [3] [%]","activity change, negative = inhibition [4] [%]","activity change, negative = inhibition [5] [%]"
O=C1NC(=O)C(c2cn(-c3ccccc3)nc2-c2ccc(F)cc2)N1 (stereo not given),-7.26,-7.5,1.69,-18.1,1.71
CC(C)c1ccc(S(=O)(=O)c2nnn3c2nc(N)c2ccccc23)cc1,-10.2,-2.58,-10.6,-16.3,-12.6
CCCn1c(=O)c2cc(Cl)ccc2n2c(SCC(=O)NCc3cccc(OC)c3)nnc12,-3.01,4.16,7.09,-4.85,0.798
CCOc1ccc(-c2cc(NC(=O)c3c(F)cccc3F)c(C(=O)O)s2)cc1,-65.5,-38.9,-4.79,-46.3,-9.84
CC(=O)Nc1cccc(Nc2ncnc(N3CCC(OCc4ccc(OC(F)(F)F)cc4)CC3)n2)c1C,-2.73,13.5,6.28,-11.8,6.45
O=C(OCC1=CC(O)C2C=CO[C@@H](O[C@@H]3O[C@H](CO)[C@@H](O)[C@H](O)[C@H]3O)C12)c1ccccc1 (stereo not given in full),0,8.59,8.19,-2.46,7.33
CCN1C(=O)c2c(C(=O)NCc3ccc(OC)c(OC)c3)ncn2CC1(C)C(=O)NC1CCCC1 (stereo not given),-5.52,0,11,2.93,5.68
Cn1nccc1C(=O)N1CC(c2nc(CCOCC3CCCC3)no2)C1,2.59,-9.12,2.53,-0.024,2.62
Cc1cc(F)ccc1NC(=O)c1cc2n(n1)CC(C)(C(=O)NC1CCCCC1)N(C)C2=O (stereo not given),7.25,0.956,4.18,-0.616,-0.885
CCN(Cc1cnn(CC)c1)C(=O)C1COc2ccccc2C1 (stereo not given),-2.02,1.76,1.29,3.76,0.495
CCOC(=O)CCNC(=O)N1CCCC(c2nc(C(C)C)no2)CCNC(=O)CC1 (stereo not given),-4.54,-8.23,-3.35,-15,-10.6
Cn1ccc(C(=O)N[C@@H]2COCC[C@@H]2OCc2cscn2)cc1=O,-4.73,-0.253,1.93,-3.48,-21.5
CC(=O)O[C@@H]1[C@H](OC(C)=O)C[C@@]2(C)C(CC[C@@H](C)[C@]23Cc2c(O)cc4c(c2O3)CN([C@@H](CCC(=O)O)C(=O)O)C4=O)C1(C)C (stereo not given in full),0.096,-1.64,11.7,-14.6,-8.73
CCOC(=O)c1cc2n(n1)CC(C)(C(=O)NC1CCC(C)CC1)N(c1cccc(Cl)c1C)C2=O (stereo not given),-0.602,3.06,0.438,-3.15,-1.54
CN(Cc1cccs1)c1ncnc2ccc(-c3ccc4c(c3)OCO4)cc12,–,-78.6,–,-83.6,-85
CN1CC(=O)N(C2CCCNCC2)Cc2c1ncnc2N1CCCC1CO (stereo not given),-1.76,-3.01,0.254,-5.82,-0.608
O=S(=O)(c1ccc(Cl)cc1)c1nnn2c1nc(NCc1ccc3c(c1)OCO3)c1ccccc12,1.22,6.87,1.88,-2.02,-5.49
COc1ccc(OC)c(S(=O)(=O)N2CCC(n3c(C)cnc3C3CCOCC3)CC2)c1,-10.4,3.9,-6.66,-8.41,-3.81
CCCn1c(=O)c2ccccc2n2c(SCc3ccccc3F)nnc12,-17.8,5.73,-1.13,-14.7,1.37
Cc1noc(C)c1CN1CCOC[C@H](O)C1,-0.488,-1.78,1.75,0.808,-1.79

Structure (SMILES),"activity change, negative = inhibition [1] [%]","activity change, negative = inhibition [2] [%]","activity change, negative = inhibition [3] [%]","activity change, negative = inhibition [4] [%]","activity change, negative = inhibition [5] [%]"
CC(C)(C)c1onc(OCP(=O)(O)O)c1CC(N)C(=O)O (stereo not given),4.62,21.4,17.4,-8.3,5.37
Cc1nc(C2(C)CCN(C(=O)CCc3cc(Cl)no3)CC2)no1,-1.62,1.13,0.988,-1.46,-0.778
CCOC(=O)c1cc2n(n1)CC(C)(C(=O)NCc1ccccc1OC)N(CCc1ccc(SC)cc1)C2=O (stereo not given),0.877,5.19,1.55,3.06,4.07
O=c1c2ccccc2n2c(=O)n(Cc3ccc(Cl)cc3)nc2n1Cc1ccccc1,4.46,0,8.3,5.96,7.07
CC(C)Cn1c(=O)c2ccc(C(=O)NC3CCCC3)cc2n2c(=O)n(Cc3ccc(F)cc3Cl)nc12,6.5,2.49,13.4,1.64,8.38
O=C(Cn1c(=O)oc2cc(S(=O)(=O)N3CCCC3)ccc21)N1CCN(Cc2ccccc2)CC1,15.9,0,10.8,1.34,5.26
Cc1ccc(CN2C(=O)c3cc4occc4n3CC2(C)C(=O)NC2CCC(C)CC2)cc1 (stereo not given),-2.43,3.18,3.89,-7.34,0.241
CC(C)OCCCn1c(=O)c2ccccc2n2c(=O)n(Cc3ccccc3F)nc12,-5.87,1.06,-2.12,-14.1,-4.5
CCc1ccc(S(=O)(=O)c2nnn3c2nc(NCc2ccc(OC)cc2)c2ccccc23)cc1,-0.547,1.41,6.88,10.6,1.41
CCOc1ccc(N2C(=O)Cn3cccc3C2C(=O)NC2CCCCC2C)cc1 (stereo not given),12.4,1.75,10.9,1.16,3.4
CC(C)Cn1c(=O)c2ccc(C(=O)NC(C)C)cc2n2c(SCc3c(F)cccc3Cl)nnc12,-0.393,-3.31,9.29,-6.33,-1.48
CCc1cccc2c3c([nH]c12)[C@@](CC)(CC(=O)O)OCC3,-8.33,–,0.074,–,–
CCN=C1N[C@@H]2[C@@H](O)[C@H](O)[C@@H](CO)O[C@@H]2S1,2.31,-3.28,-1.36,-13.9,-9.09
COc1cc(-c2cn(C3CCc4c(F)cccc4N(CC(F)(F)F)C3=O)nn2)ccc1-n1cnc(C)c1 (stereo not given),-9.49,-4.03,-34.4,-28.9,-3.57
CCc1cccc(N2C(=O)c3c(NC(C)=O)c4cc(F)ccc4n3CC2(C)C(=O)NC2CCCC2)c1 (stereo not given),-11.9,1.2,-7.8,-2.51,-5.03
CCOc1ccccc1CN1C(=O)c2cc3occc3n2CC1(C)C(=O)NC1CCCCC1 (stereo not given),4.29,0,7.91,8.66,3.3
O=C(NCCN1CCN(c2cccc3c2OCCO3)CC1)c1ccc(F)cc1,-2.29,-7.19,8.63,-21.9,-3.55
CC(=O)Nc1c2n(c3ccc(F)cc13)CC(C)(C(=O)NC1CCCCCC1)N(C1CCCCC1)C2=O (stereo not given),-6,2.76,0.354,-0.361,-4.36
COc1ccc(OC)c(S(=O)(=O)N2CCc3nc(-c4ccc(Cl)cc4)ncc3C2)c1,17.5,6.02,13.5,9.97,11.5
O=C(NCCCNc1nc(Nc2cccc(CN3CCOCC3)c2)ncc1C1CC1)C1CCC1,0.913,5.85,-62.1,-20.6,-13.1

Structure (SMILES),"activity change, negative = inhibition [1] [%]","activity change, negative = inhibition [2] [%]","activity change, negative = inhibition [3] [%]","activity change, negative = inhibition [4] [%]","activity change, negative = inhibition [5] [%]"
CC1=C(CO)CC(C(C)C2CCC3C4CC=C5CC(OC6OC(COC7OC(CO)C(O)C(O)C7O)C(O)C(O)C6O)CC(O)C5(C)C4CCC23C)OC1=O (stereo not given),6.37,8.03,9.09,-7.67,8.42
CN1CCC(N2CC3(CCC2=O)CCN(C(=O)c2ccccn2)CC3)C1 (stereo not given),-0.447,-4.57,3.05,-1.66,2.23
COc1cc(C#N)ccc1S(=O)(=O)Nc1ccc2c(c1)cc(C)c(=O)n2C,-2.3,-6.67,10.9,-16.7,3.56
COc1ccc(NC(=O)CCc2nnc3n(CC(C)C)c(=O)c4ccccc4n23)cc1,-7.23,0,11,11.6,2.05
CCOC(=O)c1cc2n(n1)CC(C)(C(=O)NCc1ccc(Cl)cc1)N(CCc1ccco1)C2=O (stereo not given),2.33,6.88,6.59,-0.574,3.62
O=C(CCc1nnc2n(Cc3ccc(Cl)cc3)c(=O)c3ccccc3n12)N1CCN(c2ncccn2)CC1,-14.2,5.95,5.91,-13.9,0.877
COc1ccc(NC(=O)CCC2CCCN(C(=O)c3ccccc3SC)C2)cc1Cl (stereo not given),-3.6,-0.958,-23.9,-5.73,-4.32
CN1C(=O)c2cc(C(=O)NC3CCCCC3)nn2CC1(C)C(=O)NC1CCCCCC1 (stereo not given),4.74,0,3.39,8.5,2.02
CCc1cc2c(cc3n2CC(C)(C(=O)NC2CCC(C)CC2)N(C(C)CCc2ccco2)C3=O)s1 (stereo not given),-23.7,4.52,0.297,-41.2,-1.13
COc1ccc(CNC(=O)c2cc3n(n2)CC(C)(C(=O)NC2CCCCCC2)N(C)C3=O)c(OC)c1 (stereo not given),-3.03,0,-3.75,-6.91,-6.6
O=C(NOCC1CC1)c1cc(Br)c(F)c(F)c1Nc1ccc(I)cc1Cl,1.41,8.81,6.99,-9.26,-3.33
COC(=O)C1=CO[C@@H](O[C@@H]2O[C@H](CO)[C@@H](O)[C@H](O)[C@H]2O)[C@@H]2[C@@H](C)[C@@H](OC(=O)/C=C/c3ccccc3)[C@@H](O)[C@H]12,3.25,5.26,4.83,-6.83,6.32
CCN1CCN(C(=O)c2ccc3nnc(-c4cccnc4)n3c2)CC1,-6.46,-14.9,-4.79,-12.1,-9.56
CCN1C(=O)c2c(C(=O)NCc3ccc(OC(C)C)cc3)ncn2CC1(C)C(=O)NC1CCCC1 (stereo not given),-11.8,2.07,-4.34,-5.73,-5.69
CCCn1c(=O)c2ccccc2n2c(=O)n(Cc3ccc(F)cc3Cl)nc12,2.27,1.19,6.38,-8.96,3.87
CCCCN(CC)CCN1C(=O)c2ccc(-c3ccco3)n2CC1(C)C(=O)NC1CCCCCC1 (stereo not given),-2.78,0.148,-3.23,-10.9,-2.13
O=C1NCCOCCN(C(=O)c2nccc3ccccc23)[C@H]2CCC[C@@H]12,-4.92,-2.11,-1.4,-8.99,-19.3
COCCCN1C(=O)c2cc(-c3ccc(C(C)C)cc3)nn2CC1(C)C(=O)NC1CCCCC1 (stereo not given),-10,3.9,3.66,-2.98,1.7
O=C(NCC(=O)N1CCN(Cc2ccccc2)CC1)c1cccc(-c2ccsc2)c1,-7.07,-1.53,-2.65,-6.61,-25.3
